The other results are listed elsewhere or left out. Further columns of the screen follow, without active or inactive calls.
Biological target: GTPase KRas (Homo sapiens) (UniProt P01116)
Assay: Fragment capture on engineered cysteines, share of protein labelled (AID 2202238)
Set-up: protein at 5 µM with 500 µM competing thiol for 1.5 h
Conditions: KRAS G12D cysteine mutants, disulfide tethering, MALDI-TOF labeling, stronger effect = higher value, fragment at 500 µM
[1] = measured here: G75C mutant labeling
[2] = measured here: H94C mutant labeling
[3] = measured here: I36C mutant labeling
[4] = measured here: L120C mutant labeling
[5] = measured here: M67C mutant labeling
[6] = measured here: M72C mutant labeling
[7] = measured here: N86C mutant labeling
[8] = measured here: P121C mutant labeling
[9] = measured here: S122C mutant labeling
[10] = measured here: S136C mutant labeling
[11] = measured here: G60C mutant labeling
[12] = measured here: N26C mutant labeling

Sequence of UniProt P01116 (P01116 whole entry, looked up, the tested form may be a part): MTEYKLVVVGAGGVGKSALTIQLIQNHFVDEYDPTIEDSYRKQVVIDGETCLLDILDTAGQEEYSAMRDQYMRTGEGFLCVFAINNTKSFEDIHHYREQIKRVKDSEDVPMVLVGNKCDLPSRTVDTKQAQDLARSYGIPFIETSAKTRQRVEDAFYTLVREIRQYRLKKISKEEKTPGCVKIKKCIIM

SMILES | percent labeling [1] | percent labeling [2] | percent labeling [3] | percent labeling [4] | percent labeling [5] | percent labeling [6] | percent labeling [7] | percent labeling [8] | percent labeling [9] | percent labeling [10] | percent labeling [11] | percent labeling [12]
O=C(CCS)NCCN1C(=O)Cc2ccccc21 | 7.6% | 18.8% | 24.1% | 23.2% | 21.8% | 13.9% | 10.9% | 22.9% | 22.6% | 40% | – | –
O=C(NCCS)c1ccc(C2CCCOC2)cc1 (stereo not drawn) | 13.9% | 18.9% | 12.8% | 19.2% | 16.3% | 47.9% | 17.3% | 11.9% | 9.4% | 21.1% | 23.6% | 33.2%
Cc1ccc(Cl)c2sc(NC(=O)CCS)nc12 | 58.2% | 24.6% | 21.7% | 24.8% | 16.3% | 59.9% | 32.5% | 17.7% | 12.8% | 30.4% | – | –
CCc1[nH]c(-c2ccccc2)cc1C(=O)NCCS | 9.3% | 10.5% | 8.6% | 12.9% | 8.9% | 26.5% | 6.8% | 22.7% | 8.6% | 17.7% | 17.4% | 38%
O=C(CCS)NCc1cn(CC(=O)Nc2cc(F)cc(F)c2)nn1 | 10% | 15.3% | 24.8% | 15% | 26.4% | 20% | 8.3% | 14.4% | 14.3% | 26.7% | – | –
CC(C)COc1ncc(CNC(=O)CCS)cc1Cl | 10.5% | 20.6% | 23.6% | 15.9% | 21.7% | 48.1% | 20.2% | 17.1% | 13.9% | 30.7% | – | –
CCC1CCc2sc(C(=O)NCCS)cc2C1 (stereo not drawn) | 10.6% | 10.4% | 7.9% | 13.2% | 8.6% | 30.6% | 10.2% | 11.7% | 10.9% | 18.3% | 18.4% | 18.3%
O=C(CCS)N1CCC(n2cc3ccccc3n2)C1 (stereo not drawn) | 16% | 30.4% | 37.3% | 35.9% | 50.9% | 34.1% | 28.3% | 38.4% | 28.3% | 56.5% | – | –
O=C(CCS)N1CC(O)CC1c1cc(F)ccc1F (stereo not drawn) | 17.3% | 39.4% | 39.3% | 34.3% | 42.3% | 36.9% | 46.2% | 38.4% | 38.8% | 61.5% | – | –
CC1(NC(=O)CCS)CCOC12CC2(F)F (stereo not drawn) | 13.4% | 26% | 23% | 19.2% | 23.8% | 18.7% | 24% | 36% | 32.6% | 39.7% | – | –
O=C(NCCS)C(c1ccc(Br)cc1)N1CCCC1 (stereo not drawn) | 23% | 29.5% | 21.9% | 66.2% | 28.8% | 22.2% | 13.4% | 18.2% | 11.8% | 27.7% | 51.1% | 39.1%
Cc1ccc(CN(C)c2ccc(C(=O)NCCS)cc2)cc1 | 12.5% | 15.3% | 9% | 12% | 10.5% | 42.2% | 13.7% | 10.7% | 8.3% | 14% | 25.6% | 26.6%
Cc1nc(C)n(CC2CCCN(C(=O)CCS)C2)n1 (stereo not drawn) | 9.4% | 33.8% | 34.9% | 31.1% | 38.8% | 12.8% | 21.7% | 29.8% | 31.2% | 57.8% | – | –
O=C(CCS)Nc1ccc(Cl)nc1OCc1ccccc1 | 13.1% | 15.3% | 26.9% | 7.5% | 25.7% | 57.4% | 22% | 12.6% | 7.6% | 19.9% | – | –
O=C(NCCS)c1ccc(Cl)c2occc12 | 10.9% | 12.4% | 13.5% | 9.9% | 7.6% | 28.7% | 4.6% | 36.3% | 8% | 19% | 50.7% | 24.7%
Cc1nn(C)c(N2CCOCC2)c1CNC(=O)CCS | 8.8% | 29.8% | 39.7% | 27.5% | 43% | 13.1% | 20% | 33.3% | 31.6% | 47.7% | – | –
O=C(CCS)NC1(c2nc(-c3ccsc3)no2)CCCCC1 | 6.5% | 18.3% | 18% | 17.3% | 39.3% | 34.6% | 18% | 15.4% | 11.4% | 35.3% | – | –
O=C(Cn1nccc1-c1ccccc1)NCCS | 18.6% | 33.9% | 27.5% | 48.3% | 50.6% | 35.3% | 26.9% | 35.9% | 32.8% | 55.2% | 46.4% | 37.2%
Cc1cc(Oc2ccccc2C#N)ncc1NC(=O)CCS | 14% | 25.1% | 32.1% | 22% | 37% | 35% | 15.2% | 20.9% | 23.7% | 37.7% | – | –
Cc1cc(C)nc(-n2cc(C(=O)NCCS)c(C)n2)n1 | 14.2% | 30.5% | 30.2% | 34.2% | 29.2% | 38.9% | 27.2% | 35.9% | 35.6% | 51.5% | 38.9% | 40.6%
COC(=O)C1(C2(O)CCN(C(=O)CCS)CC2)CCC1 | 10.8% | 41.8% | 35.7% | 37.8% | 40% | 25.4% | 20.3% | 35.5% | 37.3% | 66.8% | – | –
NC(=O)N1CCc2cc(NC(=O)CCS)ccc21 | 12.7% | 23.3% | 27.3% | 25.8% | 24% | 31.1% | 13.2% | 25.1% | 29.9% | 42.4% | – | –
Cc1cc(NC(=O)CCS)cnc1N1CCCCC1C (stereo not drawn) | 15.6% | 17.7% | 20.3% | 18.6% | 18.1% | 34% | 17.5% | 13.4% | 14.3% | 35.9% | – | –
Cn1ncc2nc(C(F)(F)F)c(C(=O)NCCS)cc21 | 23.8% | 36.2% | 32.7% | 32.9% | 38.5% | 45.8% | 37.7% | 32.4% | 29.4% | 51% | 67.3% | 46.1%
O=C(NCCS)c1cc2c(Br)c(F)ccc2[nH]1 | 15.7% | 12.8% | 12.6% | 10.4% | 9% | 18.6% | 15.3% | 9.9% | 6.7% | 9.5% | 17% | 29.3%
Cn1cc(NC(=O)CCS)c(-c2ccccn2)n1 | 22.3% | 24% | 15.7% | 19.7% | 29.3% | 36.6% | 11% | 21.3% | 23.3% | 37.1% | – | –
O=C(NCCS)c1csc(-c2cc3ccccc3o2)n1 | 19.6% | 14.3% | 10.4% | 15.6% | 10.5% | 38.9% | 13.5% | 12.6% | 8.3% | 14.4% | 31.8% | 28.1%
Cn1nnc(CN2CCC[C@@H]2C(=O)NCCS)n1 | 10.5% | 36.7% | 16.7% | 31.9% | 30.4% | 11.2% | 28.1% | 34.5% | 31.7% | 42% | 25% | 32%
O=C(NCCS)c1cnn(-c2ccc(Cl)cc2Cl)c1 | 13.4% | 12.2% | 11% | 11.1% | 11.3% | 35.1% | 9.5% | 13.7% | 7.2% | 16.6% | 29.4% | 27.3%
Cc1ccc(S(=O)(=O)N2CCC(C(=O)NCCS)CC2)cc1Cl | 6.1% | 5.4% | 4.5% | 6.4% | 10.4% | 10.5% | 5.1% | 5.3% | 3.6% | 7% | 9.6% | 20.4%
